Laboratory results reported in PubChem BioAssay AID485344 (National Center for Advancing Translational Sciences (NCATS), 2010).
Out of some 340,000 compounds screened, about 6,900 (2%) were called active. Cut-off read from the data, not from the text of the source: active = inhibition above about 30%; inactive = below that, where a call was filed. Only a part is listed here, and it is no random draw. Where no call is shown, the source filed none.

These compounds were tested against D(2) dopamine receptor (Homo sapiens) (UniProt P14416) (assay: HTS Assay for Allosteric Antagonists of the Human D2 Dopamine Receptor: Primary Screen for Antagonists). Settings: HEK293 TREx D2 cells, calcium flux, dopamine EC80; at 10 µM; stronger effect = higher value.
Procedure, shortened: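 HEK293 T-REx D2 cells, tet-induced, calcium dye no-wash. Cpd pintool add, 180 s kinetic, then EC80 DA, 180 s kinetic. Ca flux read.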
Note: 0% is about no effect.

Sequence of UniProt P14416 (P14416 whole entry, looked up): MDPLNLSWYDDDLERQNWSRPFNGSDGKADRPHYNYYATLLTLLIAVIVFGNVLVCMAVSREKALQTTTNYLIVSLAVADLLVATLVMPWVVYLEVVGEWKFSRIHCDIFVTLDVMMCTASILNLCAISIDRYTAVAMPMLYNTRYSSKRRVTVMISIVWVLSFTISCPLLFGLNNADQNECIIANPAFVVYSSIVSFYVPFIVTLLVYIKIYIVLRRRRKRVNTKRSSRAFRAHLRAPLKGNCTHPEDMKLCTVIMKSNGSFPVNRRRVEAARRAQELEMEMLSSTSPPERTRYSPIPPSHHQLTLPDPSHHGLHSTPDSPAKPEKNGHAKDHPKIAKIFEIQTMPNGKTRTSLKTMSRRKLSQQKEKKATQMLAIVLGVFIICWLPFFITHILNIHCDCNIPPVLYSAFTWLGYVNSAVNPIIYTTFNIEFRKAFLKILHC

Row | Compound | inhibition
1 | CCOc1ccccc1C(=O)NCc1nc2cccnc2n1Cc1ccc(C)cc1 | 7.16%
2 | CCOc1cc(CNC(=O)c2ccc3c(c2)N(C)C(=O)C2CCCCN32)ccc1OC (stereo unspecified) | 4.42%
3 | O=C(CNC(=O)c1ccc(F)cc1)OCc1cc(=O)n2nc(C3CCCCC3)sc2n1 | 8.19%
4 | COc1ccc(OC)c(NC(=O)CN2CCCN(Cc3ccccc3Cl)S2(=O)=O)c1 | -5.28%
5 | CCN(CC)CCCn1c(=S)[nH]c2ncccc2c1=O | active: 47.8%
6 | Cc1ccc(N2CCN(C(=O)c3cnn(-c4ccc(C)c(C)c4)c3C3CCNCC3)CC2)c(C)c1 | -2.74%
7 | Cc1ccc(-n2ncc3c(NC4CCCCC4)ncnc32)cc1Cl | -2.02%
8 | COc1ccc(CNC(=O)CCCn2nc(C)c3c(C)n(-c4ccc(C)cc4)nc3c2=O)cc1OC | 7.97%
9 | Cc1cccc(N2CCN(C(=O)c3noc4c3CCCCC4)CC2)c1C | 4.75%
10 | COc1ccccc1NC(=O)c1cn(-c2ccccc2)nc1-c1ccccc1 | 23.7%
11 | Cc1cc(C(=O)C(=O)Nc2nncs2)c(C)n1-c1ccc(Cl)cc1 | 5.48%
12 | CCc1ccc(NC(=O)Cn2c(=O)n(-c3cc(OC)c(OC)c(OC)c3)c(=O)c3ccccc32)cc1 | -11.6%
13 | CC(NC(=O)c1ccc(F)cc1)c1nc2ccccc2[nH]1 (stereo unspecified) | -24%
14 | COc1ccc(N2CCN(C(=O)CNS(=O)(=O)c3ccc(Br)s3)CC2)cc1 | 16.9%
15 | N#Cc1nc(/C=C/c2ccc(F)cc2)oc1NCc1ccc(F)cc1 | 21.8%
16 | Cc1ccc(N(C)C(=O)CN2C(=O)CCc3cc(S(=O)(=O)N4CCOCC4)ccc32)cc1 | -0.479%
17 | O=C(c1ccc2c(c1)N(Cc1cccc(Cl)c1)C(=O)c1ccccc1S2=O)N1CCN(c2cccc(C(F)(F)F)c2)CC1 (stereo unspecified) | -3.18%
18 | O=C(NC1CC(=O)N(c2ccc(F)cc2)C1)c1ccc2c(c1)OCO2 (stereo unspecified) | 2.84%
19 | COc1ccccc1CNC(=O)CCn1cnc2ccccc2c1=O | 2.24%
20 | CCN1CCN(C(c2ccccc2Cl)c2c(O)cc(C)n(Cc3ccco3)c2=O)CC1 (stereo unspecified) | -9.44%
21 | Cn1c(=O)c2c(ncn2Cc2ccc(Cl)cc2)n(C)c1=O | 9.78%
22 | O=C(Cn1c(=O)n2nc(-c3cccc(F)c3)nc2c2ccccc21)N1CCN(c2ccc(F)cc2)CC1 | 16.2%
23 | O=c1cc(N2CCCCC2)c(-c2ccccc2)nn1Cc1c(Cl)cccc1Cl | active: 31.9%
24 | Cc1cccc(Cn2nnc3c(=O)[nH]c(C4CCCN(C(=O)c5ccccc5Cl)C4)nc32)c1 (stereo unspecified) | -4.69%

Row | Compound | inhibition
25 | COC(=O)c1cc(S(=O)(=O)NCCN2CCN(c3ccccc3F)CC2)c[nH]1 | active: 73.2%
26 | COc1cc(C(=O)NCc2nc3cccnc3n2Cc2ccc(C)cc2)cc(OC)c1OC | -1.4%
27 | Cc1cc(C)c(NS(=O)(=O)c2ccc(-c3coc(C)n3)cc2)c(C)c1 | 6.84%
28 | CC(=O)c1ccc(NC(=O)Cn2ncc3c4ccccc4n(Cc4ccccc4)c3c2=O)cc1 | -0.518%
29 | COc1ccc(N(C(=O)c2ccccc2)S(=O)(=O)c2ccc3c(c2)n(C)c(=O)n3C)cc1 | 12.3%
30 | O=C(NCc1ccc(Cl)cc1)C1CCN(S(=O)(=O)c2ccccc2)CC1 | -6.44%
31 | Cc1ccc(-n2c(=O)c3c(C)c(C)sc3n(Cc3ccc(F)cc3Cl)c2=O)cc1C | 11.9%
32 | COc1ccc(CCNC(=O)Cc2c(C)c3cc4c(C)coc4cc3oc2=O)cc1OC | -3.8%
33 | Oc1ccc(-c2nc3ccc(Cl)cn3c2Nc2ccc3c(c2)OCO3)cc1 | 3.86%
34 | CCOc1ccc(C2C(=O)N(C3CCCCC3)CC(=O)N2CCc2ccccc2)cc1OC (stereo unspecified) | -23.4%
35 | O=C(CNc1ccccc1)N/N=C/c1ccc2c(c1)OCO2 | active: 37.3%
36 | Cc1ccccc1Cn1c(=O)n(CC2CCC(C(=O)N3CCOCC3)CC2)c(=O)c2sccc21 (stereo unspecified) | -1.8%
37 | Cc1cc(C)c(S(=O)(=O)N2CCN(Cc3ccc4c(c3)OCO4)CC2)cc1C | 10.4%
38 | Cc1c(Cl)cccc1Nc1nn2c(=O)c3ccc(C(=O)NCCC4=CCCCC4)cc3nc2s1 | -1.63%
39 | CCCCCn1c(CNC(=O)c2ccccc2)nc2ccccc21 | -12.9%
40 | CCc1ccc(S(=O)(=O)NCc2nc3cccnc3n2Cc2cccc(OC)c2)cc1 | 18.5%
41 | CCN(CC)c1ccc(-n2nc3cc(C)c(NC(=O)c4ccccc4C)cc3n2)c(C)c1 | 20.8%
42 | CCOc1ccc(NC(=O)Cn2c(=O)n(CCCCC(=O)NCc3ccc4c(c3)OCO4)c(=O)c3ccccc32)cc1 | -14.1%
43 | COc1ccccc1-c1nn2c(=O)cc(CN3CCN(C(=O)/C=C/c4ccccc4)CC3)nc2s1 | 8.85%
44 | CN(C)c1ccc(Nc2nc3ccccc3n3nnnc23)cc1 | 12%
45 | COc1ccc(N2CCN(S(=O)(=O)c3ccc(-c4cnc(C5CC5)o4)cc3)CC2)cc1 | 8.05%
46 | COc1ccc(-c2c(-c3ccccc3)c(C(=O)C(=O)NCCCN(C)C)n3ccc4cc(OC)c(OC)cc4c23)cc1OC | active: 48.3%
47 | COc1cccc(CNC(=O)CN2C(=O)N(c3cccc(Cl)c3)S(=O)(=O)c3ccccc32)c1OC | 0.0887%
48 | COc1ccccc1CNC(=O)CSc1nc(=O)[nH]c2c1CCC2 | -13.3%

Row | Compound | inhibition
49 | CC(C)(C)CC(C)(C)c1ccc(OCC(=O)Nc2ccc(S(=O)(=O)Nc3ncccn3)cc2)cc1 | -4.54%
50 | Cc1ccc(C)c(N(C)C(=O)Cc2c(C(=O)O)[nH]c3ccc(Cl)cc23)c1 | 6.33%
51 | CCN1CCN(c2cc(C)c3cc(NC(=S)NCCCN4CCc5ccccc5C4)ccc3n2)CC1 | active: 52.6%
52 | COc1ccc(CN2CCN(c3ccccn3)CC2)cc1OCc1ccccc1 | active: 87%
53 | COc1ccc(C2C(C(=O)Nc3ccc(C)cc3C)=C(C)Nc3nc(SCc4cccc(C)c4)nn32)c(OC)c1 (stereo unspecified) | -5.11%
54 | N#CC(C#N)=C1C=C2C=C(N3CCOCC3)CCC2CC1 (stereo unspecified) | active: 65.3%
55 | NC(=O)c1nn2c(C(F)(F)F)cc(-c3ccc(Br)cc3)nc2c1Cl | 15.6%
56 | CSc1nc(=O)c2c(n1C)NC(=O)CC2c1cc(F)cc(F)c1 (stereo unspecified) | -0.595%
57 | Cc1ccc2nc(Cl)c3cc(C(=O)NCCCN(C)Cc4ccccc4)sc3c2c1 | -3.26%
58 | COc1ccccc1CNc1nc2c(S(=O)(=O)c3ccccc3)nnn2c2ccc(Cl)cc12 | -2.9%
59 | COc1ccc(C2C=C(c3ccc(Br)cc3)Nc3nnnn32)c(OC)c1 (stereo unspecified) | 21.2%
60 | COc1ccc(Nc2cc(C(=O)NC3CCCC3)c3ccccc3n2)cc1 | -22.6%
61 | COC(=O)CCCCC(=O)OC | active: 36.5%
62 | Cc1ccc(NC(=O)c2c(NC(=O)c3ccccc3Cl)sc3c2CCC3)cc1 | 2.78%
63 | CN1CCN(C(=O)Cn2ncc3c4ccccc4n(Cc4ccc(Cl)cc4)c3c2=O)CC1 | 7.51%
64 | Cc1cc(C)c(NC(=O)c2c(C)nn(-c3ccc(F)cc3)c2-n2cccc2)c(C)c1 | 0.221%
65 | O=C(CSc1nccn1Cc1ccc(F)cc1)NCc1ccc(F)cc1 | 4.49%
66 | CS(=O)(=O)N1CCc2cc(C(=O)N3CCN(c4ccccc4F)CC3)ccc21 | 5.31%
67 | Cc1ccccc1NC(=O)Cn1nnc(C(=O)NCCc2ccccc2)c1N | 9.14%
68 | O=C(NC1CCCCC1)c1ccc(CSc2nc3ccncc3n2Cc2ccc(F)cc2)cc1 | 4.65%
69 | CCc1nn2c(=O)c(S(=O)(=O)Nc3ccc(Br)cc3F)c(C)nc2s1 | -5.82%
70 | CCOC(=O)c1sc2ccccc2c1S(=O)(=O)N1CCN(c2cc(C)ccc2C)CC1 | 6.1%
71 | CCNC(=O)c1cc2n(n1)CCCN(Cc1ccc(C)cc1)C2=O | 7.93%
72 | COc1ccc(CCNC(=O)c2cc3c(=O)oc4ccc(C)cc4c3s2)cc1OC | 13.7%

Row | Compound | inhibition
73 | COc1ccc(OCC(=O)Nc2ccc3nn(-c4ccc(OC)cc4)nc3c2)cc1 | -6.06%
74 | Cc1nn(C(=O)c2cccc(F)c2)c(C)c1S(=O)(=O)N1CCOCC1 | -2.89%
75 | O=C(C1CCN(c2ncnc3c2nc2n3CCCCC2)CC1)N1CCN(c2ccc(Cl)cc2)CC1 | -2.57%
76 | COc1ccc(-c2cc(C(F)(F)F)n3nc(C(=O)Nc4cc(C)ccc4C)cc3n2)cc1 | 8.45%
77 | Cc1ccc2c(c1)c1c3n2CCN(C(=O)c2ccc(C(F)(F)F)cc2)C3CCC1 (stereo unspecified) | 15.7%
78 | CC1=C(C(=O)OCc2ccc(C)cc2)C(c2cccc(F)c2F)CC(=O)N1 (stereo unspecified) | 7.18%
79 | CCCCN1CC(c2nc3ccccc3n2CCCCOc2ccc(C)cc2C)CC1=O (stereo unspecified) | 2.43%
80 | O=C(NCCCc1nc2ccccc2n1Cc1cccc(Cl)c1)c1ccco1 | 1.3%
81 | Cc1ccc(-n2ncc3c(NCCCN4CCOCC4)ncnc32)cc1Cl | -22.6%
82 | Cc1cccc(C)c1NC(=O)c1csc2c1CCCC2 | 2.47%
83 | COc1ccccc1NC(=O)C(=O)c1cc(C)n(-c2ccccc2F)c1C | -26.8%
84 | CCc1ccc(NC(=O)c2cc(S(=O)(=O)N3CCCCCC3)ccc2F)cc1 | 13.7%
85 | Cc1ccc(NC(=O)Nc2nnc(SCC(=O)Nc3ccc(F)cc3F)s2)cc1 | 18.8%
86 | CC(=O)N1C(=O)C2(Nc3ccccc3N2)c2ccccc21 | active: 34.2%
87 | Cc1nc(N2CCCC2)c2c(C(=O)Nc3cccc(Cl)c3C)c(C)oc2n1 | -2.29%
88 | Cc1ccc(-n2ncc3c(NCCCc4ccccc4)ncnc32)cc1 | -20.4%
89 | CCCNC(=O)C1CCC(Cn2c(=O)c3sccc3n(Cc3ccccc3C)c2=O)CC1 (stereo unspecified) | -13.3%
90 | COc1ccc(Cl)cc1-n1nnc(-c2nc(-c3ccc4c(c3)OCO4)no2)c1C | -2.01%
91 | COc1cc2[nH]c(=O)n(Cc3ccc(C(=O)NCc4ccccc4)cc3)c(=O)c2cc1OC | 0.592%
92 | COc1cc(Cl)c(C)cc1NC(=O)c1cc2ccc3cccnc3c2[nH]1 | 2.92%
93 | O=C(c1cc(=O)c2cc(Cl)ccc2o1)N(Cc1ccccc1)C1CCS(=O)(=O)C1 (stereo unspecified) | -26.7%
94 | CC(=O)OCc1cnc(C)c2oc(=O)c(C(=O)Nc3cccc(F)c3)cc12 | -12.5%
95 | COc1ccccc1NC(=O)c1ccc2c(Cl)c3c(nc2c1)CCCC3 | -3.01%
96 | COc1ccc(-n2c(=O)c3c4c(sc3n(Cc3ccccc3)c2=O)CN(C(C)=O)CC4)cc1OC | 10.2%
